The values below come from a collection of fitness landscapes (doi:10.1126/science.1257360).

Some of the results follow.

To fix the notation:
B1: PhoQ; a variant is named by its letters at X, in order, P23837 (parent)
chain: MKKLLRLFFPLSLRVRFLLATAAVVLVLSLAYGMVALIGYSVSFDKTTFRLLRGESNLFYTLAKWENNKLHVELPENIDKQSPTMTLIYDENGQLLWAQRDVPWLMKMIQPDWLKSNGFHEIEADVNDTSLLLSGDHSIQQQLQEVREDDDDAEMTHSVAVNVYPATSRMPKLTIVVVDTIPVELKSSYMVWSWFIYVLSANLLLVIPLLWVAAWWSLRPIEALAKEVRELEEHNRELLNPATTRELTSLVRNLNRLLKSERERYDKYRTTLTDLTHSLKTPLXXLQXXLRSLRSEKMSVSDAEPVMLEQISRISQQIGYYLHRASMRGGTLLSRELHPVAPLLDNLTSALNKVYQRKGVNISLDISPEISFVGEQNDFVEVMGNVLDNACKYCLEFVEISARQTDEHLYIVVEDDGPGIPLSKREVIFDRGQRVDTLRPGQGVGLAVAREITEQYEGKIVAGESMLGGARMEVIFGRQHSAPKDE

The variants in this test derive from B1. As to the kind of experiment: enrichment ratio after two sorts for PhoP signalling (ratio (wild type AVST 3.29)); higher = more functional. The following applies: with PhoP (E. coli).
In the case of SKSH, the enrichment ratio worked out at 0.51.
As to PTGW, the enrichment ratio is ≤ 0.25.
Take ITDM: the enrichment ratio is ≤ 0.25.
In the case of QQIF, the enrichment ratio was ≤ 0.25.
Consider EYAY, for which the enrichment ratio was ≤ 0.25.
The figure for TSDL is 4.55; for SKCI it is 16.6; for IVWL it is ≤ 0.25.
The figure for NTGT is ≤ 0.25; for TFEP it is ≤ 0.25; for GLPP it is ≤ 0.25.
The figure for CTLS is ≤ 0.25; for KELS it is ≤ 0.25.
With PNYT, the enrichment ratio is ≤ 0.25.
The figure for SRQW is ≤ 0.25; for ARNL it is ≤ 0.25.
The same measure for VMRL: ≤ 0.25; for WSCM: ≤ 0.25.
The same measure for VFQN: ≤ 0.25; for FEVY: ≤ 0.25.
Regarding GHFI, the enrichment ratio is ≤ 0.25.
The figure for KAIN is ≤ 0.25; for MTNL it is ≤ 0.25.
The figure for IVFP is ≤ 0.25.
The same measure for AHYN: ≤ 0.25; for KTEI: ≤ 0.25.
As for TIRW, the enrichment ratio is ≤ 0.25.
Turning to SKNL, the enrichment ratio is ≤ 0.25.
For the variant RMTE, the enrichment ratio was ≤ 0.25.
For the variant SWTC, the enrichment ratio is ≤ 0.25.
The same measure for IIWI: ≤ 0.25.
As to ERWV, the enrichment ratio was ≤ 0.25.
On to YMFD, for which the enrichment ratio was ≤ 0.25.
The figure for GGPF is ≤ 0.25.
The same measure for ALKS: ≤ 0.25.
The figure for RRMQ is ≤ 0.25; for MLKS it is ≤ 0.25.
With DMFE, the enrichment ratio is ≤ 0.25.
The figure for RQLN is ≤ 0.25; for GIMN it is 1.64; for HRLD it is ≤ 0.25.
The figure for ETPT is ≤ 0.25.
The same measure for HCRY: ≤ 0.25.
On to FYLW, for which the enrichment ratio was ≤ 0.25.
With DNEF, the enrichment ratio was ≤ 0.25.
The figure for SCQH is 1.92; for NGMY it is ≤ 0.25.
The figure for SQRI is ≤ 0.25.
In the case of DNTC, the enrichment ratio is ≤ 0.25.
The same measure for RQTA: ≤ 0.25; for EAQN: ≤ 0.25; for PDKL: ≤ 0.25.
The figure for YLTA is ≤ 0.25; for TSTY it is 11.6.
For the variant GPFY, the enrichment ratio is ≤ 0.25.
PQEW: the enrichment ratio stood at 1.09.
The same measure for LMSM: ≤ 0.25; for QTVK: ≤ 0.25; for PYGD: ≤ 0.25.
With RGHN, the enrichment ratio is ≤ 0.25.
The same measure for IDPS: ≤ 0.25; for VRPG: ≤ 0.25.
AVRT: the enrichment ratio was ≤ 0.25.
The figure for DWCA is ≤ 0.25; for KEIR it is ≤ 0.25; for DEAP it is ≤ 0.25.
The figure for SLCA is 5.43; for GHSW it is ≤ 0.25.
LLHR: the enrichment ratio was ≤ 0.25.
The same measure for MAGA: ≤ 0.25; for AKAM: 13.1; for DFAH: ≤ 0.25.
Turning to SFTV, the enrichment ratio is ≤ 0.25.
The figure for GGWW is ≤ 0.25.
With QTNG, the enrichment ratio amounted to 7.96.
The figure for ITSN is ≤ 0.25; for IHSV it is ≤ 0.25; for GTMM it is 5.34.
On to KNQH, for which the enrichment ratio was ≤ 0.25.
In the case of DLLH, the enrichment ratio was ≤ 0.25.
The same measure for QTGG: ≤ 0.25.
The figure for SMWE is ≤ 0.25.
For GYYN, the enrichment ratio was ≤ 0.25.
For IHIW, the enrichment ratio is ≤ 0.25.
Take SFAV: the enrichment ratio was ≤ 0.25.
The figure for EGAF is ≤ 0.25.
The same measure for VYKT: ≤ 0.25; for SGGQ: 14.9; for AHWE: ≤ 0.25.
The figure for FSTM is 7.05; for TQWS it is 10.7; for PTCR it is ≤ 0.25.
As for RNIY, the enrichment ratio is ≤ 0.25.
The same measure for RDDH: ≤ 0.25; for AIND: ≤ 0.25.
The same measure for VQYF: ≤ 0.25; for IMAW: ≤ 0.25; for NWTC: ≤ 0.25.
The same measure for PFEY: ≤ 0.25.
Regarding KYTM, the enrichment ratio was ≤ 0.25.
The same measure for NLQS: ≤ 0.25; for EMTN: ≤ 0.25.
The figure for EHDQ is ≤ 0.25; for TLAM it is 3.04.
The same measure for YAGS: ≤ 0.25; for IRPD: ≤ 0.25; for RMTL: ≤ 0.25.
With FWAY, the enrichment ratio was ≤ 0.25.
Take EPKI: the enrichment ratio is ≤ 0.25.
TEYE: the enrichment ratio is ≤ 0.25.
Regarding TVQC, the enrichment ratio was 4.14.
The same measure for VMFM: ≤ 0.25.
Turning to LRWP, the enrichment ratio is ≤ 0.25.
The figure for LTFH is 0.348; for FEWD it is ≤ 0.25.
FRFW: the enrichment ratio is ≤ 0.25.
Consider TCCM, for which the enrichment ratio stood at 20.
The figure for RMYQ is ≤ 0.25.
Regarding FVIH, the enrichment ratio was ≤ 0.25.
The figure for VQIN is ≤ 0.25; for PWGR it is ≤ 0.25; for KDDH it is ≤ 0.25.
The figure for FTDY is ≤ 0.25; for MWCR it is ≤ 0.25.
For the variant WRVS, the enrichment ratio was ≤ 0.25.
The same measure for FMTV: ≤ 0.25; for WDCQ: ≤ 0.25; for MYVW: ≤ 0.25.
On to IFSN, for which the enrichment ratio is ≤ 0.25.
On to NLPA, for which the enrichment ratio is ≤ 0.25.
The same measure for SSMW: ≤ 0.25; for FADD: ≤ 0.25.
As for KSWE, the enrichment ratio was ≤ 0.25.
The figure for VFPK is ≤ 0.25.
The figure for MDHT is ≤ 0.25; for PRVH it is ≤ 0.25; for SVFM it is ≤ 0.25.
Consider SNCL, for which the enrichment ratio was determined as 14.4.
QTST: the enrichment ratio is ≤ 0.25.
PADY: the enrichment ratio is ≤ 0.25.
As for EKPV, the enrichment ratio is ≤ 0.25.
The same measure for PQGS: ≤ 0.25; for FWNG: ≤ 0.25; for PFNR: ≤ 0.25.
As to ETVP, the enrichment ratio was ≤ 0.25.
Take SEQR: the enrichment ratio was ≤ 0.25.
The same measure for SIWD: 14.
With YMQM, the enrichment ratio is ≤ 0.25.
For the variant GSQP, the enrichment ratio is ≤ 0.25.
Consider QCRL, for which the enrichment ratio was ≤ 0.25.
Turning to HWII, the enrichment ratio is ≤ 0.25.
Turning to SSRM, the enrichment ratio is ≤ 0.25.
The figure for ICMY is ≤ 0.25; for IENA it is ≤ 0.25.
The same measure for VFPC: ≤ 0.25; for WIAC: ≤ 0.25.
The figure for RHQS is ≤ 0.25; for MRSI it is ≤ 0.25.
TQEG: the enrichment ratio is ≤ 0.25.
For VRTE, the enrichment ratio was ≤ 0.25.
The same measure for YNCI: 0.31; for ECGN: ≤ 0.25.
The figure for YITH is ≤ 0.25.
The same measure for GMCI: 1.01; for HSSD: ≤ 0.25; for WNCG: ≤ 0.25.
In the case of QTRT, the enrichment ratio is ≤ 0.25.
The figure for DVGM is ≤ 0.25.
The figure for GSRI is ≤ 0.25; for HEQS it is ≤ 0.25.
The figure for WSDI is ≤ 0.25; for SHTA it is ≤ 0.25.
As to PCEE, the enrichment ratio was ≤ 0.25.
Consider KHLG, for which the enrichment ratio was ≤ 0.25.
As to VIVI, the enrichment ratio was ≤ 0.25.
The same measure for YCNM: ≤ 0.25.
The same measure for HPAK: ≤ 0.25; for LKDK: ≤ 0.25; for NSRD: ≤ 0.25.
The figure for LSSH is ≤ 0.25; for WCFG it is ≤ 0.25.
Turning to QDIK, the enrichment ratio was ≤ 0.25.
The figure for SYYF is ≤ 0.25; for ITKG it is ≤ 0.25.
Take QMVF: the enrichment ratio is ≤ 0.25.
The figure for DVLD is ≤ 0.25; for TFMT it is ≤ 0.25; for KIQT it is ≤ 0.25.
ARHS: the enrichment ratio was ≤ 0.25.
The figure for KMPE is ≤ 0.25; for GYWQ it is ≤ 0.25.
The same measure for KHAL: ≤ 0.25.
The same measure for VYWH: ≤ 0.25; for HDCD: ≤ 0.25; for AMRP: ≤ 0.25.
